The results in this text go back to paper PMC12136788.

First the molecules themselves.
B1: chr6:41757443:41757444:+_ENSG00000214736_ENST00000398881|hu_mus|hu_hu_hu_mus_False|38_108 (ssRNA)
RNA: GGGAGUUCUACAGUCCGACGAUCGAACUGUCUGCUGGCAACAUCUCAGCCGACACUGGGGGAUGGGGGGGCAGUGGGGGGGGGUUCAGGCAAGGAGAAGAAAAGUGCUUCAGCUGCCACUCAGGUAGGAUCUUGUGGUCACAGCAACAGAGGAUUGAGCAUCA
B2: 30679904_30680152_861_3pUTR_ENSG00000156860_ENST00000287468|human|control|control (ssRNA)
RNA: GGGAGUUCUACAGUCCGACGAUCGGGAGGCGAAGGCUGGUGGGGCCCCUGGGCUUUCUUUCUGGGCAAAGACGGCGCCGGAGUUGAAUGUGGGGCUGCCCAGGCCUCCAAAGGCCCCGUUGGAGAGGGCAGCCAAAGAGGCGACAACAGAGGAUUGAGCAUCA
B3: chr5:180275300:180275301:-_ENSG00000196670_ENST00000512132|hu_hu|motif|central (ssRNA)
RNA: GGGAGUUCUACAGUCCGACGAUCUCAUCAUCACUGCCCCCUCCCAAACCAAUUACAUCAAGUUUAUACUUAAAGACCACGGAUAUUAAAUAAAUUUAUAUUCCCUGAAACCUAUCCUCCCUGAAUUUGCCUGUUGGAGGCCCUCAACAGAGGAUUGAGCAUCA
B4: chr17:60770872:60770873:+_ENSG00000011028_ENST00000303375|hu_hu|hu_hu_hu_mus_True|88_108 (ssRNA)
RNA: GGGAGUUCUACAGUCCGACGAUCUCUCUUUUCUUUUAAAAAAAAAGUUUAAAAACAAUAGCACAUUUCGAGAAUCAAGAACUACAAUAGAGGGUCCGCUUUGAGUUUUUGUUCACAUCGUCCUGCACUGGGACACGGGGACUGCAACAGAGGAUUGAGCAUCA
B5: chr17:48526647:48526648:-_ENSMUSG00000023994_ENSMUST00000046719|mus_hu|FALSE|FALSE (ssRNA)
RNA: GGGAGUUCUACAGUCCGACGAUCGUGGGCUACUAUGGUGUGCCAAAGUGACCACAAGAAAAGGGUCAUGAGCUAUUUGAAAUGCAAUGACAAAAUGACAACUGAAGCAUUUCAAACAAAAUUCAAAGUCAUCUCCCCCCAAAUCAACAGAGGAUUGAGCAUCA
B6: chr2:73467608:73467609:+_ENSG00000135624_ENST00000258091|hu_mus|FALSE|FALSE (ssRNA)
RNA: GGGAGUUCUACAGUCCGACGAUCAUCCUGGGACUUGGCUAUGUCCACUAAAGUCUUUGCUGCAGGAUGGACAACAUCGAGGAGUUUCAGAAUUGUGGCCCCAUCAUUAGAUAUUGUUGCUUUGCCUCGGCCAUCCACAAUAAGCAACAGAGGAUUGAGCAUCA

The list shows a part of the results.

In the assay the target is T1, UNK ZnF1-3 (human, UniProt Q9C0B0 31-174).
T1 sequence: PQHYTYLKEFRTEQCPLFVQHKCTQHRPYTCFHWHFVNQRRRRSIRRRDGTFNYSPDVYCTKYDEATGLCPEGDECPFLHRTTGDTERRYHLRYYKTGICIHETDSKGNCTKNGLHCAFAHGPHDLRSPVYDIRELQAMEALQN
The assay can be described thus: nsRBNS (natural sequence RNA bind-n-seq); RBNS binding buffer (assumed for nsRBNS): 25 mM Tris pH 7.5, 150 mM KCl, 3 mM MgCl2, 0.01% Triton X-100, 500 ug/ml BSA, 20 U/ml SUPERase-In, 4 C; UNK is unkempt and MSI1 is Musashi-1; names of the RNAs are library labels; protein concentration not given here; high values mean tight binding.
Take B1: the binding signal is 1.6 enrichment R.
The result for B2 reads 1.05 enrichment R.
The result for B3 reads 1.98 enrichment R; that for B4, 1.29 enrichment R.
The value for B5 was 1.17 enrichment R.
Turning to B6, the binding signal was 0.992 enrichment R.
